{"source": "PubChem BioAssay AID1477", "about": "(National Center for Advancing Translational Sciences (NCATS), 2009)", "note": "Hit rate of the full screen: of about 230,000 compounds, fewer than 10 were called active. The inconclusive results got no clear call from the source; some entries with a clear call stand among them for comparison. Calls follow the shape of the dose curve; as a rule, active = well fitted curve in the direction sought with a large enough effect; inconclusive = small, poorly fitted or top-dose-only effect, or effect the other way, or another doubt; inactive = no such curve, though single readings can be large or run the other way. No potency is given beside an inconclusive call; the fits are too rough.", "data": [{"molecular_target": "Runt-related transcription factor 1 (Homo sapiens) + Core-binding factor subunit beta (Homo sapiens) (UniProt Q01196+Q13951)", "sequence (Q01196 whole entry, looked up)": "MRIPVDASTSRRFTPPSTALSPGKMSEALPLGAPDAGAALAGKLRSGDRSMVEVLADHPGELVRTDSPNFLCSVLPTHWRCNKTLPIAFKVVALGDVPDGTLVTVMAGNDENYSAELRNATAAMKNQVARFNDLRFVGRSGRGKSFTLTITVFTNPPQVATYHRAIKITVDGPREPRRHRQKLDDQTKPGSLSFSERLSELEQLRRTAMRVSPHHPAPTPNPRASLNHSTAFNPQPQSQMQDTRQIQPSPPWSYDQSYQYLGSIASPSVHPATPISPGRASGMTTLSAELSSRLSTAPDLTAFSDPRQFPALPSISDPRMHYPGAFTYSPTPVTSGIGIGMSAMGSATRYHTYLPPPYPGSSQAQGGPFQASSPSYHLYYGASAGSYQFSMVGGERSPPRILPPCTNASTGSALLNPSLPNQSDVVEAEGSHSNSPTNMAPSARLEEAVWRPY", "sequence (Q13951 whole entry, looked up)": "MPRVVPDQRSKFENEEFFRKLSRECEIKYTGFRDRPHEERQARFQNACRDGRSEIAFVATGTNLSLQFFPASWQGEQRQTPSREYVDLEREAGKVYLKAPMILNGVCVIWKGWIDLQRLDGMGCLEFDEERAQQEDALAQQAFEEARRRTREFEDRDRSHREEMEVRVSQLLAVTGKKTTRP", "assay": "qHTS Assay for Compounds Blocking the Interaction Between CBF-beta and RUNX1 for the Treatment of Acute Myeloid Leukemia; as to activity, negative = inhibition: % of control where 0% means no effect", "conditions": "AlphaScreen CBFb-His/RUNX1-biotin binding, biochemical; activity, negative = inhibition: at 59.8 µM (top of the series) unless noted", "procedure,_shortened": "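Read-out: AlphaScreen. Format: His-CBF-beta with biotinylated RUNX1 (30 nM each) preincubated 20 min, compound 15 min, Ni-chelate plus streptavidin beads 90 min; room temperature throughout.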", "values": [{"compound": "Cc1ccc(-c2ccc(C3C4C=CCCC4(C)C(=O)N3Cc3ccccc3)c(F)c2)cc1", "note": "(centres undefined)", "activity, negative = inhibition": "inactive: 4.51%"}, {"compound": "O=C(CSc1ncc(-c2ccc(F)cc2)n1Cc1ccco1)Nc1ccc2c(c1)OCO2", "Potency": "inconclusive [inhibitor, single point]"}, {"compound": "CCc1cc2c(C)cc(=O)oc2cc1OC(=O)C1CCCN1C(=O)OC(C)(C)C", "note": "(centres undefined)", "Potency": "inconclusive [inhibitor, single point]"}, {"compound": "Cc1ccc(C(=O)CSc2nnnn2Cc2ccccc2)cc1C", "Potency": "inconclusive [activator, single point]"}, {"compound": "Cc1occc1C(=O)Nc1sc2c(c1C(N)=O)CCCCC2", "Potency": "inconclusive [inhibitor, single point]"}, {"compound": "COc1ccc(CCNc2nc(-c3ccccn3)cs2)cc1OC", "Potency": "inconclusive [inhibitor, partial curve]"}, {"compound": "Clc1ccc(-c2cc(COc3ccccc3)no2)cc1Cl", "Potency": "inconclusive [activator, single point]"}, {"compound": "N#Cc1ccc(NC(=O)Nc2cccc(C#N)c2)cc1", "activity, negative = inhibition": "inactive: -0.229%"}, {"compound": "COCCCN(CCCN)Cc1ccco1", "activity, negative = inhibition": "inactive: 2.48%"}, {"compound": "Cc1ccc(/C([O-])=C(/C(=S)NCc2ccco2)[n+]2ccccc2)cc1", "activity, negative = inhibition": "inactive: -27.7%"}, {"compound": "CNc1ccc(O)cc1", "Potency": "inconclusive [inhibitor, partial curve]"}, {"compound": "COc1ccc(/C=N/Nc2cc(C)nc(N)n2)cc1", "Potency": "inconclusive [activator, single point]"}, {"compound": "O=c1cc(-c2ccc(O)cc2)oc2c(-c3cc(-c4cc(=O)c5c(O)cc(O)cc5o4)ccc3O)c(O)ccc12", "Potency": "inconclusive [inhibitor, partial curve]"}, {"compound": "CCCn1nc(NC(=O)c2ccco2)c2cc3ccc(C)cc3nc21", "Potency": "inconclusive [activator, partial curve]"}, {"compound": "Cc1cccc2cc(C3CC(c4ccco4)=NN3S(C)(=O)=O)c(Cl)nc12", "note": "(centres undefined)", "Potency": "inconclusive [inhibitor, single point]"}, {"compound": "Cc1cccc(NC(=S)N=Nc2c(O)[nH]c3ccccc23)c1", "Potency": "inconclusive [inhibitor, partial curve]"}, {"compound": "CC1CN(S(=O)(=O)c2cccc(C(=O)OC/C(O)=C(\\C#N)c3nc4ccccc4[nH]3)c2)CC(C)O1", "note": "(centres undefined)", "Potency": "inconclusive [inhibitor, partial curve]"}, {"compound": "CC(C)(C)N1C(=O)NC(=O)/C(=C\\c2ccc3c(c2)CCN3CCCCl)C1=O", "Potency": "inconclusive [inhibitor, single point]"}, {"compound": "CCCCCCn1c(N)c(C(=O)NCCN2CCOCC2)c2nc3ccccc3nc21", "Potency": "inconclusive [activator, partial curve]"}, {"compound": "Cc1cc(Cl)ccc1C(=O)C1CCCN(C(=O)c2snnc2C)C1", "note": "(centres undefined)", "Potency": "inconclusive [activator, full curve, poor fit]"}, {"compound": "Cc1ncc([N+](=O)[O-])n1CCOc1nonc1N", "Potency": "inconclusive [activator, partial curve]"}, {"compound": "COCc1cc(=O)n2[nH]c(N)nc2n1", "activity, negative = inhibition": "inactive: 4.81%"}, {"compound": "COc1ccc(CCN(C)C(=O)/C=C/c2c(Cl)nc3ccccn23)cc1OC", "Potency": "inconclusive [inhibitor, partial curve, poor fit]"}, {"compound": "Cc1ccc2c(c1)-c1c(ssc1=S)C(C)(C)N2C(=O)CSc1nncn1C", "Potency": "inconclusive [inhibitor, single point]"}, {"compound": "Oc1ccc(Nc2nc(N3CCCC3)c3ccccc3n2)cc1", "activity, negative = inhibition": "inactive: -16.8%"}, {"compound": "COc1ccc(C(=O)N/N=C/c2ccc3cccc(O)c3n2)cc1", "Potency": "inconclusive [inhibitor, single point]"}, {"compound": "Cc1cccc(C(=O)Nc2nnc(-c3ccncc3)o2)c1", "Potency": "inconclusive [inhibitor, partial curve, poor fit]"}, {"compound": "CN(C)C(=N)N=C(N)N", "Potency": "inconclusive [inhibitor, single point]"}, {"compound": "Cc1nnc(SCC(=O)c2ccc(Cl)cc2)s1", "activity, negative = inhibition": "inactive: -4.04%"}, {"compound": "COc1ccc(Nc2cc(C)nc(NCc3ccccc3)n2)cc1", "activity, negative = inhibition": "inactive: -10.2%"}, {"compound": "Cc1ccncc1C(=O)O", "Potency": "inconclusive [inhibitor, single point]"}, {"compound": "COC(=O)/C=C/C(=O)N1CCN(c2cccc(Cl)c2)CC1", "activity, negative = inhibition": "inactive: 5.88%"}, {"compound": "CCOC(=O)C1CCCN(S(=O)(=O)c2ccc(NC(C)=O)cc2)C1", "note": "(centres undefined)", "activity, negative = inhibition": "inactive: 0.354%"}, {"compound": "Cc1c(C(=O)NC2CCCCC2)sc2nc3ccc(N)cc3n12", "Potency": "inconclusive [inhibitor, single point]"}, {"compound": "CC1(C)c2ssc(=S)c2-c2ccccc2N1C(=O)CSC1=NCCS1", "Potency": "inconclusive [inhibitor, partial curve]"}, {"compound": "COc1ccccc1NC(=O)N1c2ccc(F)cc2CCC1C", "note": "(centres undefined)", "Potency": "inconclusive [inhibitor, single point]"}, {"compound": "N#Cc1nc(COc2ccccc2)oc1N1CCCCCC1", "Potency": "inconclusive [inhibitor, single point]"}, {"compound": "CCC(=O)Nc1sc2c(c1C#N)CCC2", "activity, negative = inhibition": "inactive: -18.7%"}, {"compound": "O=C(COC(=O)/C=C/c1ccco1)Nc1ncc(Cl)cc1Cl", "Potency": "inconclusive [inhibitor, single point]"}, {"compound": "O=C(c1ccc(N2CCCCC2)c([N+](=O)[O-])c1)N(Cc1ccccc1)c1ccccn1", "Potency": "inconclusive [inhibitor, partial curve]"}, {"compound": "COc1cccc(NC(=O)c2oc3ccccc3c2NC(=O)C(C)(C)C)c1", "Potency": "inconclusive [activator, partial curve]"}, {"compound": "O=C(CN1CCCc2ccccc21)N/N=C/c1c(O)ccc2ccccc12", "Potency": "inconclusive [inhibitor, single point]"}, {"compound": "COc1cccc2c(=O)cc(C)n(CC(=O)Nc3ccccc3C)c12", "activity, negative = inhibition": "inactive: 3.26%"}, {"compound": "O=C(COC(=O)c1ccc(NS(=O)(=O)c2cccs2)cc1)NCc1ccco1", "Potency": "inconclusive [inhibitor, partial curve]"}, {"compound": "COc1ccc(C(=O)NC(=S)NNC(=O)CNC(=O)C2CCCCC2)cc1", "activity, negative = inhibition": "inactive: 7.34%"}, {"compound": "Cn1c(=O)c(C(=O)COC(=O)c2cc(-c3ccco3)nc3ccccc23)c(N)n(CC2CC2)c1=O", "Potency": "inconclusive [inhibitor, single point]"}, {"compound": "COc1ccc(OC)c(C(c2nnnn2C2CCCC2)N2CCN(c3ccccc3F)CC2)c1", "note": "(centres undefined)", "activity, negative = inhibition": "inactive: -5.16%"}, {"compound": "Nc1ccc(C(=O)OCC(=O)Nc2ccc3c(c2)OCO3)cc1[N+](=O)[O-]", "Potency": "inconclusive [activator, full curve, poor fit]"}, {"compound": "COc1cccc([C@@H]2Oc3ccc(OC)cc3C[C@H]2OC(=O)Nc2ccc(OC(F)F)cc2)c1", "Potency": "inconclusive [activator, full curve]"}, {"compound": "CCn1c(-c2ccccc2)ccc(C#N)c1=O", "Potency": "inconclusive [activator, partial curve]"}, {"compound": "Cc1ccc2c(c1)C(=O)CC1(CCCCCC1)O2", "Potency": "inconclusive [activator, partial curve]"}, {"compound": "CCC(C)Nc1c2c(nc3c(-c4ccccc4)c(C)nn13)CCC2", "note": "(centres undefined)", "Potency": "inconclusive [activator, single point]"}, {"compound": "CC(Oc1ccccc1)C(=O)N1CCN=C1SCc1ccccc1", "note": "(centres undefined)", "Potency": "inconclusive [activator, single point]"}, {"compound": "COc1ccc(O)c(/C=N/NC(=O)c2c(C)nnn2-c2nonc2N)c1", "Potency": "inconclusive [activator, partial curve]"}, {"compound": "CCn1c2ccccc2c2cc(/C=N/NC(=O)c3ccncc3)ccc21", "activity, negative = inhibition": "inactive: 5.82%"}, {"compound": "C=CCn1c(P(=O)(O)c2ccccc2)nc2ccccc21", "activity, negative = inhibition": "inactive: 3.2%"}, {"compound": "CC(=O)c1c(N2CCN(c3cccc(Cl)c3)CC2)nc(=S)n(-c2ccccc2)c1C", "activity, negative = inhibition": "inactive: -1.76%"}, {"compound": "Oc1ccc(/C=N/N(Cc2ccccc2)c2ccccc2)c(O)c1O", "Potency": "inconclusive [inhibitor, partial curve]"}, {"compound": "CCCSc1nc(C)cc(C)c1S(=O)(=O)c1ccccc1C", "Potency": "inconclusive [activator, single point]"}, {"compound": "CC1=NN(C(N)=S)C(=O)C1N=Nc1ccccc1C", "note": "(centres undefined)", "activity, negative = inhibition": "inactive: -2.27%"}, {"compound": "COc1ccccc1C1CN(c2ccc(F)cc2F)N=C1c1cccs1", "note": "(centres undefined)", "Potency": "inconclusive [activator, partial curve]"}, {"compound": "CC(C)n1c(=O)c(C=Nc2ccc(Cl)cc2)c(O)n(Cc2ccco2)c1=O", "activity, negative = inhibition": "inactive: 13.9%"}, {"compound": "Cc1cccc(-c2noc(-c3cc4ccccc4oc3=O)n2)c1", "activity, negative = inhibition": "inactive: -4.17%"}, {"compound": "CC(C)N1C(=O)/C(=C/C=C/c2ccco2)C(=O)N(Cc2ccco2)C1=O", "Potency": "inconclusive [inhibitor, partial curve]"}, {"compound": "Cc1ccccc1CNS(=O)(=O)c1ccc2c(c1)OCCO2", "activity, negative = inhibition": "inactive: 3.65%"}, {"compound": "Fc1ccc(Nc2ncnc3sc4c(c23)CCC4)cc1F", "activity, negative = inhibition": "inactive: 7.49%"}, {"compound": "O=C1C=C(Nc2ccc(Cl)cc2)CC(c2ccco2)C1", "note": "(centres undefined)", "Potency": "inconclusive [inhibitor, single point]"}, {"compound": "Cc1c(Cl)cnc(NC(=O)COC(=O)c2ccc([N+](=O)[O-])s2)c1Cl", "Potency": "inconclusive [inhibitor, single point]"}, {"compound": "S=c1[nH]nc(COc2ccccc2)n1C1CCCCC1", "activity, negative = inhibition": "inactive: 1.27%"}, {"compound": "CN(C)CC1CSCCC1(O)c1ccccc1", "note": "(centres undefined)", "activity, negative = inhibition": "inactive: 2.5%"}, {"compound": "CCOc1ccc(OCCSc2nc3ccccc3o2)cc1", "Potency": "inconclusive [activator, single point]"}, {"compound": "Cc1ccc(-c2csc3nc4c5ccccc5c(NCCCN(C)C)nn4c(=O)c23)cc1", "Potency": "inconclusive [activator, partial curve]"}, {"compound": "O=C(NCc1ccco1)c1csc(Nc2ccccc2Cl)n1", "activity, negative = inhibition": "inactive: -14.4%"}, {"compound": "Cc1ccc2nc3nc4ccc[nH]c4cc3c2c1", "activity, negative = inhibition": "inactive: -11.7% [at 13.1 µM]"}]}]}
